# Laboratory results: the supplement of paper PMC12645437, “Orthogonal IMiD-Degron Pairs Induce Selective Protein Degradation in Cells” (ACS Chemical Biology, 2025)
# The other results are listed elsewhere or left out.
# Target: no compound (DMSO)
# Experiment: log2 fold change of degron read counts, EGFP-low vs EGFP+ sorted cells; higher = lower degron-EGFP level without compound (poor expression or instability)
# Conditions: compound: DMSO control; 18 h
# 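Further: jurkat cells carrying a lentiviral library of mutant zinc finger degrons fused to EGFP plus mCherry, mCherry+ cells FACS sorted, degron abundance counted by next-generation sequencing.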
row,Sequence,log2 fold change of degron read counts
1,FNCPVCGAYFTQKGNLLRHIKL,0.519
2,FACPVCGAEFTQKGNLLRHIKL,-1.12
3,FTCPVCGARFTQKGNLLRHIKL,0.0513
4,LVCNQCGFACTQKGNLLRHIKL,-0.364
5,FHCNVCGAAFTQKGNLLRHIKL,-0.358
6,FGCEQCGAEFTQKGNLLRHIKL,-2.73
7,FVCPICGRYFTQKGNLLRHIKL,0.0378
8,FTCPICGRPFTQKGNLLRHIKL,0.116
9,FGCPICGHQFTQKGNLLRHIKL,-0.479
10,FLCNICGAMFTQKGNLLRHIKL,0.0174
11,FLCNQCGAEFTQKGNLLRHIKL,-1.76
12,LRCPICGFDCTQKGNLLRHIKL,0.877
13,FVCPICGAHFTQKGNLLRHIKL,0.21
14,FSCEQCGASFTQKGNLLRHIKL,-2.08
15,FVCDVCGAFFTQKGNLLRHIKL,-1.67
16,LQCEICGFLCTQKGNLLRHIKL,0.12
17,FYCNICGARFTQKGNLLRHIKL,-0.825
18,FNCNQCGHFFTQKGNLLRHIKL,1.38
19,LYCEICGFQCTQKGNLLRHIKL,0.0706
20,FQCNICGATFTQKGNLLRHIKL,0.0634
21,LSCPICGFVCTQKGNLLRHIKL,0.704
22,FLCNQCGRGFTQKGNLLRHIKL,-0.573
23,LVCEICGFACTQKGNLLRHIKL,-0.441
24,FICEVCGAGFTQKGNLLRHIKL,-2
25,FKCPVCGAYFTQKGNLLRHIKL,0.359

row,Sequence,log2 fold change of degron read counts
1,FRCPVCGALFTQKGNLLRHIKL,0.0468
2,LKCEICGFYCTQKGNLLRHIKL,0.326
3,FVCNQCGHNFTQKGNLLRHIKL,-0.654
4,FTCNVCGACFTQKGNLLRHIKL,-0.087
5,FYCNQCGRAFTQKGNLLRHIKL,0.222
6,LICPICGFFCTQKGNLLRHIKL,1.85
7,FYCNICGAAFTQKGNLLRHIKL,-0.979
8,FTCEICGAFFTQKGNLLRHIKL,-0.662
9,FNCEICGAIFTQKGNLLRHIKL,0.399
10,FDCEICGRYFTQKGNLLRHIKL,0.281
11,FSCDQCGAEFTQKGNLLRHIKL,-1.69
12,FMCPICGHNFTQKGNLLRHIKL,-0.404
13,FHCNICGADFTQKGNLLRHIKL,-1.24
14,FICNQCGAFFTQKGNLLRHIKL,-0.204
15,FYCNQCGRLFTQKGNLLRHIKL,1.06
16,FQCPICGAVFTQKGNLLRHIKL,-0.188
17,FRCNQCGRVFTQKGNLLRHIKL,0.319
18,FTCPICGHEFTQKGNLLRHIKL,-0.922
19,FQCPICGARFTQKGNLLRHIKL,-0.52
20,FSCPICGAGFTQKGNLLRHIKL,-0.183
21,FDCDQCGAQFTQKGNLLRHIKL,-2.78
22,FQCEVCGALFTQKGNLLRHIKL,-1.54
23,LVCNQCGFVCTQKGNLLRHIKL,-0.606
24,FFCDICGATFTQKGNLLRHIKL,-0.418
25,FSCNQCGRKFTQKGNLLRHIKL,-0.0779
